# The campaign covered roughly 110,000 compounds. About 230 (0.21%) showed an effect of 50% or more. The list shows a part of the results.
# Target: DPAP1 (Plasmodium falciparum, UniProt Q8IIJ9)
# Experiment: primary screen, percent inhibition; read by cleavage of a fluorogenic dipeptide substrate; higher = more effect of the substance
# Parameters: species or system P. falciparum D10 trophozoite lysates; single well
# 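Note: 30 min substrate incubation versus DMSO and 10 µM JCP410 controls.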
# Sequence of DPAP1 (Q8IIJ9 whole entry, looked up): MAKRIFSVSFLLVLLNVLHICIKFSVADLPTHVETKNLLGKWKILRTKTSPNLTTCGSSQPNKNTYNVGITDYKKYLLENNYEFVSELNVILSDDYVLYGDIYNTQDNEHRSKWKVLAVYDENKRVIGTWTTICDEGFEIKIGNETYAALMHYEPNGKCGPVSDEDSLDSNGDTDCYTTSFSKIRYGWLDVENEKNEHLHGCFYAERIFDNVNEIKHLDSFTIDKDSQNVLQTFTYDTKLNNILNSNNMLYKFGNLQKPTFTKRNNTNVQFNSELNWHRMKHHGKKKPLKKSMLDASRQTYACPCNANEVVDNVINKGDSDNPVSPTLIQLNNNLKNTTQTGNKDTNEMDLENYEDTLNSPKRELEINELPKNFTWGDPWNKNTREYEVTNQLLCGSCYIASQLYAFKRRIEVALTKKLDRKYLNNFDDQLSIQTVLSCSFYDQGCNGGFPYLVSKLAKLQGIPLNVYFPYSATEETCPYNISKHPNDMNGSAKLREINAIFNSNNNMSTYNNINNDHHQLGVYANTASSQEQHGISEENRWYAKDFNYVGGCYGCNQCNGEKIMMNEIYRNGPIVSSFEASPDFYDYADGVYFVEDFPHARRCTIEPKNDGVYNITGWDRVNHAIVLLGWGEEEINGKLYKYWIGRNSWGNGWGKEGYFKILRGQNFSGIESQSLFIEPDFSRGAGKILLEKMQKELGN
row,SMILES,% Inhibition @ 10 uM
1,CC1(c2ccc3c(c2)OCO3)NC(=O)NC1=O (stereo not drawn),-6.68%
2,O=C(CSc1ccccc1C(=O)O)Nc1ccccc1F,-1.55%
3,COc1ccc(Nc2nc(NCC3CCCO3)c3ccccc3n2)cc1 (stereo not drawn),-4.12%
4,O=C(c1ccco1)N1CCN(c2nc3ccccc3n3nnnc23)CC1,2.76%
5,Cn1cnc2c(=O)oc3ccc(S(=O)(=O)N4CCOCC4)cc3c21,-7.88%
6,COc1ccc(Cl)cc1-c1nc(N)nc(NC2CCCCC2)n1,0.583%
7,COc1ccc(C2Nc3ccccc3NC3=C2C(=O)NC3)cc1OC (stereo not drawn),2.86%
8,O=C(Nc1ccccc1O)c1ccccc1F,-1.17%
9,Cc1ccc(S(=O)(=O)N2CCN(C(=O)CC(C)C)CC2)cc1,-3.4%
10,COCc1cc(C)nc2sc(C#N)c(N)c12,-0.436%
11,Cc1ccc(C(O)c2nc3ccccc3n2C)cc1 (stereo not drawn),2.85%
12,O=C1NC2(CCNCC2)N=C1c1ccccc1,2.33%
13,CCCn1c(CCC(=O)NCc2ccc(C)cc2)nc2cccnc21,0.66%
14,c1ccc2[nH]c(CN3CCCCC3)nc2c1,-0.178%
15,Cc1c(C(=O)C(F)(F)F)c2ccccc2n1CC(=O)NCc1ccc2c(c1)OCO2,-5.1%
16,C=CCc1c(C)nc(SC)nc1Nc1ccc(C(C)=O)cc1,-1.88%
17,Nc1nc(-c2ccc(-c3ccc(-c4csc(N)n4)cc3)cc2)cs1,-1.51%
18,Cc1cc(C)c2c(=O)n(CC(=O)N3CCN(Cc4ccccc4)CC3)sc2n1,17.8%
19,CCOc1ccc(N/C(=N\C(C)=O)Nc2nc(C)cc(C)n2)cc1,-1.08%
20,O=C(NC12CC3CC(CC(C3)C1)C2)OCCNc1ccccc1,0.815%
21,COc1nc2c(c(=O)n(C)c(=O)n2C)n1Cc1ccc(C#N)cc1,-8.63%
22,CN(C)c1ccc(C(C2=C(O)CC(C)(C)CC2=O)C2C(=O)CC(C)(C)CC2=O)cc1 (stereo not drawn),0.716%
23,O=C(N/C(=C/c1cccs1)C(=O)N1CCCC1)c1cccs1,1.01%
24,CCNC(=O)CN(c1cc(Cl)cc(Cl)c1)S(=O)(=O)c1ccccc1,0.956%
25,O=C(CCn1nc(-c2ccccc2)ccc1=O)NCc1ccccc1Cl,3.24%
26,CCCOc1ccc(Br)cc1C1/C(=C(\O)OCC)C(C)=Nc2nnnn21 (stereo not drawn),0.0289%

row,SMILES,% Inhibition @ 10 uM
1,O=C(NCCc1ccc(O)cc1)c1ccc2ccccc2c1,3.47%
2,C[n+]1cn(CC(O)COc2cccc(Cl)c2)c2ccccc21 (stereo not drawn),2.95%
3,O=C(NC1CC1)C1CCN(C(=O)c2ccc(-n3ccc4ccccc43)s2)CC1,3.45%
4,C/C(=C\c1ccccc1)CN1C[C@@H]2C[C@H](C1)c1cccc(=O)n1C2,3.22%
5,Cc1cc(=O)n2nc(N(C)CC(=O)NCC(C)c3ccccc3)sc2n1 (stereo not drawn),-2%
6,COc1nc(C)ccc1-c1noc(-c2ccccc2Cl)n1,5.3%
7,COc1ccccc1N1CCN(Cc2ccsc2)CC1,-1.86%
8,O=C(c1cc(-c2ccncc2)nc2ccccc12)N1CCN(c2ccccn2)CC1,1.16%
9,CS(=O)(=O)N(CC(=O)N(Cc1ccccc1)Cc1ccccc1)c1cccc(F)c1,28.4%
10,Cc1cc(-c2c(C)[n+]([O-])c(C)c(C)[n+]2[O-])ccc1F,-0.0626%
11,COc1cc(OC)nc(NC(=O)Nc2cccc(Cl)c2)n1,-0.999%
12,CC(C)C(C(=O)NCc1ccccc1)N1Cc2ccccc2C1=O (stereo not drawn),0.0322%
13,CCOc1ccc(-n2cc(-c3ccccc3)c3c(NC(C)COC)ncnc32)cc1 (stereo not drawn),-1.62%
14,O=C(O)COc1ccc(S(=O)(=O)NCc2ccccc2)cc1,4.31%
15,COc1cc2c(cc1OC)CN(C(=O)CSc1nnc3ccc4ccccc4n13)CC2,-2.75%
16,O=C(c1cccc(C(=O)N2CCN(c3ncccn3)CC2)c1)N1CCN(c2ncccn2)CC1,-2.9%
17,CC1=C(C(=O)OCC(C)C)C(c2c(F)cccc2Cl)CC(=O)N1 (stereo not drawn),-3.51%
18,CC(=O)c1ccccc1C(=O)NCc1cccnc1,-1.6%
19,O=c1c(Cc2ccccc2)c(O)nc2n1CCS2,1.42%
20,COCCN1C(=O)/C(=C\c2ccc(SC)cc2)C(C(=O)OC)=C1C,0.131%
21,O=c1oc2ccc([N+](=O)[O-])cc2cc1-c1ccccc1,-2.51%
22,Cc1cc(C)n(C(=O)c2cc(F)c(F)cc2C)n1,-4.24%
23,CCCCC(=O)Nc1nc2cc(C)c(C)cc2s1,-2.07%
24,CCOC(=O)N1CCN(C(=O)CN2C(=O)c3ccccc3S2(=O)=O)CC1,8.68%
25,Cc1ccc(C(=O)Nc2ccccc2C)o1,1.57%

# — paper PMC6919601, “Identification of Plasmodium dipeptidyl aminopeptidase allosteric inhibitors by high throughput screening” (PLoS ONE, 2019)
